The source gives no read counts; variants with many changes may rest on few reads.
B1: LINE1-mini (parent)
chain: GGCAGAGCUCAACACAGCGUGGCAAAGUGGCUGUGGCUAGACUGCC

Variants of: B1
Assay: self-cleavage, relative activity (ratio to wild type); higher = more cleavage; in vitro, sequencing; the parent is a self-cleaving ribozyme

**Q.** For GGCAGAGAUCAACACAGCGUGGCAAAGUGACUCUGGCUAGGCUGCC [C8A G30A G33C A41G], which self-cleavage is on record?
**A.** 0.26

**Q.** Which self-cleavage does the source give for GGCAGAGGUUCAAACAGCGUGGCAAAGUGGCUGUGGCUAGACUGCC [C8G C10U A11C C13A] here?
**A.** 0.04

**Q.** With GGCAGAGGUCACGUCAGCGUGGCAAAGUGGCUGUGGCUAGACUGCC [C8G A12C C13G A14U] as the variant, how does the self-cleavage read?
**A.** 0.03

**Q.** With GGCAGAGAGCAACACAGCGUGGAAAAGUGGCUGUGGCUAUACUGCC [C8A U9G C23A G40U] as the variant, how does the self-cleavage read?
**A.** 0.03

**Q.** With GGCAGAGAUCAACACAGCGUGGCAAAGUGGCUAUGGAUAGACUGCC [C8A G33A C37A] as the variant, how does the self-cleavage read?
**A.** 0.04

**Q.** With GGCAGAGGUCCACACAGCAUGGAAAAGUGGCUGUCGCUAGAUUGCC [C8G A11C G19A C23A G35C C42U] as the variant, how does the self-cleavage read?
**A.** 0.02

**Q.** Which self-cleavage does the source give for GGCAGAGGUCAACACAGCGUGGCGAAAUGGCUGUGACUAUACUGCC [C8G A24G G27A G36A G40U] here?
**A.** 0.06

**Q.** For GGCAGAGGUAAACACAGCGGGGGAAAGUGGCUGUGGCUAGGCUGCC [C8G C10A U20G C23G A41G], which self-cleavage is on record?
**A.** 0

**Q.** Which self-cleavage does the source give for GGCAGAGGUCAACACAGCGUGGCACAGUGACUGUGGCUAGACUGCC [C8G A25C G30A] here?
**A.** 0.13

**Q.** Which self-cleavage does the source give for GGCAGAGGUCACCACAGCGUAGCAAAGUGGCUGGGGCUAGACUGCC [C8G A12C G21A U34G] here?
**A.** 0.03

**Q.** With GGCAGAGGUCGAGACAGCGUGGCAAAGUGGCUGUGUAUAGACUGCC [C8G A11G C13G G36U C37A] as the variant, how does the self-cleavage read?
**A.** 0.01

**Q.** With GGCAGAGAUCAACACAGCGAGUCAAAGUGGCUGUGACUAGACUGCC [C8A U20A G22U G36A] as the variant, how does the self-cleavage read?
**A.** 0.3

**Q.** For GGCAGAGGUCAACACCGCGUGGUGAAGUGGCUGUGGCUAGACUGCC [C8G A16C C23U A24G], which self-cleavage is on record?
**A.** 0.01

**Q.** With GGCAGAGGUCGACACAGCGUGGCAAAGUAGCUGCGGCUCUACUGCC [C8G A11G G29A U34C A39C G40U] as the variant, how does the self-cleavage read?
**A.** 0

**Q.** Which self-cleavage does the source give for GGCAGAGAUCAACACAGCGCGGCUAAGUGGCUGUGGCUAGACUGCC [C8A U20C A24U] here?
**A.** 0.12

**Q.** For GGCAGAGGUCAACACAGCGUGGCAUCGUGGCUGUGGCUAGACUGCC [C8G A25U A26C], which self-cleavage is on record?
**A.** 0.11

**Q.** With GGCAGAGAUCAACACAGCGUGGCAAAGUGGCUGUGGCUAUACUGAC [C8A G40U C45A] as the variant, how does the self-cleavage read?
**A.** 0.16

**Q.** For GGCAGAGGUCAAGACAGCGUGGCAAGGUGGCUGUAGCUAGAUUGCC [C8G C13G A26G G35A C42U], which self-cleavage is on record?
**A.** 0.09

**Q.** For GGCAGAGACCAACACAGCGUGACAAAGUGGCUGGGGCUAGACUGCC [C8A U9C G22A U34G], which self-cleavage is on record?
**A.** 0.03

**Q.** For GGCAGAGGUCAACUCAGCGUGGCAAAGUGGCUGUUGCUAGACUGCC [C8G A14U G35U], which self-cleavage is on record?
**A.** 0.05

**Q.** Which self-cleavage does the source give for GGCAGAGGUCAAAACAGGGUGGCAAAGUGGCUGUGGCUAGACUGCC [C8G C13A C18G] here?
**A.** 0.14

**Q.** Which self-cleavage does the source give for GGCAGAGAUCAACACAGCGUGGCAAAGUGUCCGUGCCUCGACUGCC [C8A G30U U32C G36C A39C] here?
**A.** 0.07

**Q.** Which self-cleavage does the source give for GGCAGAGGUCAACACAGCGUGGCACAGUGGCUGUUGCUAGACUGCC [C8G A25C G35U] here?
**A.** 0.15

**Q.** For GGCAGAGGUCCACACAGCGUGGCAAAGUGGCUGUAGCUAGACUGCC [C8G A11C G35A], which self-cleavage is on record?
**A.** 0.04

**Q.** Which self-cleavage does the source give for GGCAGAGGUCAACCCAGCGUGGCAAAGUGACUGUGGCUAGAAUGCC [C8G A14C G30A C42A] here?
**A.** 0.06

**Q.** With GGCAGAGGUCAACACAGCGUGGCAACGUGGCUGUGGCUAGACUGUC [C8G A26C C45U] as the variant, how does the self-cleavage read?
**A.** 0.06

**Q.** Which self-cleavage does the source give for GGCAGAGAUCAACACAGCGUGGCAAAGUGUAUGUGGCCAGACUGCC [C8A G30U C31A U38C] here?
**A.** 0.32

**Q.** With GGCAGAGGUAAACACAGCGGGGCAAAGUGGCUGUGGCUUGACUGCC [C8G C10A U20G A39U] as the variant, how does the self-cleavage read?
**A.** 0.02

**Q.** Which self-cleavage does the source give for GGCAGAGGUCAACAGAGCGUGGCAAAAUGACUGUGGCUAGACUGCC [C8G C15G G27A G30A] here?
**A.** 0.05

**Q.** Which self-cleavage does the source give for GGCAGAGAUCAACACAGCGCGGCAAAGUGGCUGUGGCUAGACUGUC [C8A U20C C45U] here?
**A.** 0.22

**Q.** With GGCAGAGAACAACACAGCAUGGAAAAGUGGCUGUGGCUAGACUGCC [C8A U9A G19A C23A] as the variant, how does the self-cleavage read?
**A.** 0.09

**Q.** Which self-cleavage does the source give for GGCAGAGGUCAACACUGCGUGGCAAAAUAGCUGUGGCUAGACUGCC [C8G A16U G27A G29A] here?
**A.** 0.07

**Q.** Which self-cleavage does the source give for GGCAGAGAUCAACACAGCGUGGCAAAGUGGCUGUAGAUAGACUGCC [C8A G35A C37A] here?
**A.** 0.12

**Q.** Which self-cleavage does the source give for GGCAGAGAACAACACUGCGUGGCAAGGUGGCUUUGGCUGGACUGCC [C8A U9A A16U A26G G33U A39G] here?
**A.** 0.05

**Q.** For GGCAGAGGUCCACACAGAGUGGCCAAGUGGUUGUGGCUAGACUGCC [C8G A11C C18A A24C C31U], which self-cleavage is on record?
**A.** 0.01

**Q.** With GGCAGAGGUGAACACAGCGUGGCAAAGUGGCUUUGGCUAGACUGCC [C8G C10G G33U] as the variant, how does the self-cleavage read?
**A.** 0.03

**Q.** With GGCAGAGGUCCACACAGCGUGGCAAAGUGGCUGUGGUUUGACUGCC [C8G A11C C37U A39U] as the variant, how does the self-cleavage read?
**A.** 0.01

**Q.** For GGCAGAGAGCAACAUAGCGGGGCAAAGAGGCUGUGGCUAGGCUGCC [C8A U9G C15U U20G U28A A41G], which self-cleavage is on record?
**A.** 0.01

**Q.** With GGCAGAGGUAAAGACAGGGUGGCAAAGUGGCUGUGGCUAGACUGCC [C8G C10A C13G C18G] as the variant, how does the self-cleavage read?
**A.** 0.02

**Q.** Which self-cleavage does the source give for GGCAGAGGUCAACAAAGCGUGGCAAAGUCGCUGAGGCUAGACUGCC [C8G C15A G29C U34A] here?
**A.** 0.01

**Q.** For GGCAGAGGUCAACUCAGCGUGGCAAAGUGUCUGUGACCAGACUGCC [C8G A14U G30U G36A U38C], which self-cleavage is on record?
**A.** 0.03

**Q.** With GGCAGAGGUCGACACAGCGUGGCAAAGUGGCUGUGGCUAGGCUGCC [C8G A11G A41G] as the variant, how does the self-cleavage read?
**A.** 0.01

**Q.** For GGCAGAGGUCAACAGAGCGUGGCAAAGUGGUUGUGGCUAGACUGCC [C8G C15G C31U], which self-cleavage is on record?
**A.** 0.02

**Q.** For GGCAGAGAACAACGCAGCGUGGCAAAGUGCCUGUGGCUAAACUGCC [C8A U9A A14G G30C G40A], which self-cleavage is on record?
**A.** 0.1

**Q.** For GGCAGAGGUCAACACAGAGUGGCAUAGUCUCUGCGCCUAGACUGCC [C8G C18A A25U G29C G30U U34C G36C], which self-cleavage is on record?
**A.** 0.05

**Q.** With GGCAGAGAGGAACACAGCGUGGCAAUGGGACUGUGGCUAGACUGCC [C8A U9G C10G A26U U28G G30A] as the variant, how does the self-cleavage read?
**A.** 0.02

**Q.** With GGCAGAGAUCAACACAGCGUGGCAAAGCGGCUGUGGCUAGACCGCC [C8A U28C U43C] as the variant, how does the self-cleavage read?
**A.** 0.18

**Q.** For GGCAGAGGUCAACACAGCGUGGCAAUGUGGCUGUGGCGAGACUGCC [C8G A26U U38G], which self-cleavage is on record?
**A.** 0.3

**Q.** Which self-cleavage does the source give for GGCAGAGGUCAACACAGAGUGGCAAGGUGGCUGUGGCUAGACUGCC [C8G C18A A26G] here?
**A.** 0.01

**Q.** Which self-cleavage does the source give for GGCAGAGGUCAACAGAGCGUGGCAAAUUGGCUGUGGCCAGACUGCC [C8G C15G G27U U38C] here?
**A.** 0.02

**Q.** Which self-cleavage does the source give for GGCAGAGGUCAAGACAGCAGGGCAAAGUGGCUGUGGCUAGACGGCC [C8G C13G G19A U20G U43G] here?
**A.** 0.04

**Q.** Which self-cleavage does the source give for GGCAGAGGUCCACACCGCGUGGCAAACUGGAUGUGGCUAGACUGCC [C8G A11C A16C G27C C31A] here?
**A.** 0

**Q.** Which self-cleavage does the source give for GGCAGAGGUCAACACAGCGUGGCUAAGUGGCUGUGGCCAGACUGCC [C8G A24U U38C] here?
**A.** 0.04

**Q.** Which self-cleavage does the source give for GGCAGAGGUCAACACAGCGUGGCAAGGUGGCUGUGGCUAGUCUGCC [C8G A26G A41U] here?
**A.** 0.24

**Q.** Which self-cleavage does the source give for GGCAGAGGUCAACACGGCGUGGCAAAGUGGCUGUGGCUAGACUGAC [C8G A16G C45A] here?
**A.** 0

**Q.** For GGCAGAGGUCAAAAAAGCGUGGCAAAGUGUCUGUGUCUAGACCGCC [C8G C13A C15A G30U G36U U43C], which self-cleavage is on record?
**A.** 0.15
